Results from paper PMC6901440.
Positions count from the first letter of the chain named. Results are given in words; binding and its absence hold for the method and conditions named. Binding seen in cells or lysates may run through a third protein. Some entries that bind do so weakly or less than the wild type. Tags and fused reporters may be left off the sequences shown.

Protein sequences, listed by entry. Tags and fused reporters are not part of them. Lines headed by an entry give the natural chain unless they say otherwise; changes in a name come on top.
UniProt P10415: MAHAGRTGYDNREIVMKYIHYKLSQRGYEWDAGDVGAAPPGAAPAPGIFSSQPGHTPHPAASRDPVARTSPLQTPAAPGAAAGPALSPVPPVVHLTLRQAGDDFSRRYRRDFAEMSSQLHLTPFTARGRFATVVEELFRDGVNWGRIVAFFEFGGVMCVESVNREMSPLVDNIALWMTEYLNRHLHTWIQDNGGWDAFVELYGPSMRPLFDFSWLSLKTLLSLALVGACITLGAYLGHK

Assays:
Assay in all cases: co-IP; HEK-293T cells transfected with Flag-tagged GSDMD or MLKL constructs and Bcl-2 or Bcl-2 G145A (MLKL also with RIP3); anti-Flag agarose beads; Bcl-2 detected by blot; washed eight times with lysis buffer
[1] = target: T1, Flag-GSDMD N-terminal fragment (human) (UniProt P57764)
T1 sequence: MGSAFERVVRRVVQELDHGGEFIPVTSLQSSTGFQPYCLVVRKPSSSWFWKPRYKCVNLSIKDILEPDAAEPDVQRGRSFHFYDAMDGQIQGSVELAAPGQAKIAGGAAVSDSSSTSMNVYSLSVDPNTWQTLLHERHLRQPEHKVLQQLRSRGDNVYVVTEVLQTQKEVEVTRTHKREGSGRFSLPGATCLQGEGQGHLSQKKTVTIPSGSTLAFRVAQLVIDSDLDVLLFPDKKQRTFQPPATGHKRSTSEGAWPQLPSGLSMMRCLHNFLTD

[2] = target: T2, Flag-GSDMD full length (human) (UniProt P57764)
T2 sequence: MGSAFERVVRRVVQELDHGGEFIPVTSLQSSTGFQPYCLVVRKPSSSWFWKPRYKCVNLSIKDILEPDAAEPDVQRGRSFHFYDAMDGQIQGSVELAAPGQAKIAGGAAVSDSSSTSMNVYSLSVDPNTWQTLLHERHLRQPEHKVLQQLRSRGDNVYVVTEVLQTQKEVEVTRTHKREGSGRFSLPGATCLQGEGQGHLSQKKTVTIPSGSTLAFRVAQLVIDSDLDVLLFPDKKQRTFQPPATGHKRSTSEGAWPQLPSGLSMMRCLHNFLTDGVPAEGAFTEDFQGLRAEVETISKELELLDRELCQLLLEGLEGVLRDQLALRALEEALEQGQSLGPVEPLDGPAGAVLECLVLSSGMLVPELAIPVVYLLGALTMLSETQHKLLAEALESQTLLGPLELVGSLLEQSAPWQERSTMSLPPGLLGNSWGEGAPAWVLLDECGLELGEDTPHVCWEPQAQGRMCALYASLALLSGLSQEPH

Flag-MLKL (human) = target: T3, Flag-MLKL (human) (UniProt Q8NB16)
T3 sequence: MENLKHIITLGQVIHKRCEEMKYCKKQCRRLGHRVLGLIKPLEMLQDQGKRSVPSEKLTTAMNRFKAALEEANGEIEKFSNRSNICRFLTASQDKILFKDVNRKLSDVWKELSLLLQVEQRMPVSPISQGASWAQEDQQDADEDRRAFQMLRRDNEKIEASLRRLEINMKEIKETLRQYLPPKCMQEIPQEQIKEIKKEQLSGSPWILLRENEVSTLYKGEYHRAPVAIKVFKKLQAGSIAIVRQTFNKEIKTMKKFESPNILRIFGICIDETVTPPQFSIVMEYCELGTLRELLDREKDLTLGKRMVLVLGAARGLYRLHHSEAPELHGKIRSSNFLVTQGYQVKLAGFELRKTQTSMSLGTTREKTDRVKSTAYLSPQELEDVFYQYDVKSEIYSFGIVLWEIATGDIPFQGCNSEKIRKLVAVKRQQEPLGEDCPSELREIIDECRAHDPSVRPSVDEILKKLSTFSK

[3] = target: T4, Flag-MLKL T357A/S358A (human) (UniProt Q8NB16)
T4 sequence: T3 sequence with T357A, S358A

[4] = target: T5, Flag-MLKL phosphorylated by co-expressed RIP3 (human) (UniProt Q8NB16)
T5 sequence (chain, phosphorylated by co-expressed RIP3 (sites TS357-58 as named in the legend)): T3 sequence

Row | binding [1] | binding [2] | binding (Flag-MLKL (human)) | binding [3] | binding [4] | Substance
1 | binds | binds | binds | binds | binds | Bcl-2 (transfected, HEK-293T) (from UniProt P10415 1-239)
2 | no binding | no binding | – | – | – | Bcl-2 G145A (transfected, HEK-293T) (from UniProt P10415 1-239)
